# Screen size: about 39,000 compounds; about 220 (0.56%) showed activity. The list shows a part of the results.
# Tested on: Escherichia coli K-12 BW25113
# Test: relative growth (OD600 normalised to plate interquartile mean) (fraction); higher = less growth inhibition, active = 0.2 or less
# Conditions: 50 µM; LB; incubation time: overnight (16-24 h)
# 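Further: static incubation at 37 °C against the wild-type strain, values averaged over two biological replicates.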
row,Structure (SMILES),relative growth
1,C[C@H](CO)N1C[C@H](C)[C@H](CN(C)Cc2cccc(F)c2)Oc2cc(C#CC3CC3)ccc2S1(=O)=O,inactive: 0.978
2,C[C@@H]1CCCCO[C@H](CN(C)S(=O)(=O)c2cn(C)cn2)[C@H](C)CN([C@@H](C)CO)C(=O)c2cc(NS(=O)(=O)c3cn(C)cn3)ccc2O1,inactive: 0.983
3,C[C@H]1CN([C@@H](C)CO)C(=O)c2cccc(NC(=O)Nc3ccc(C(F)(F)F)cc3)c2O[C@H]1CN(C)CC1CCCCC1,inactive: 0.92
4,COc1ccc([C@@H]2C/C=C\C[C@@H](c3cccc(Cl)c3)NC(=O)[C@@H](c3ccccc3)CC(=O)N2)c(OC)c1,inactive: 1
5,COc1c(OC)c2occc2c2oc(=O)ccc12,inactive: 1.04
6,O=C(C[C@@H]1CC[C@H]2[C@@H](COC[C@@H](O)CN2C(=O)c2ccccc2)O1)N1CCOCC1,inactive: 0.993
7,C[C@@H]1CN([C@H](C)CO)C(=O)c2cc(C#Cc3ccccc3F)cnc2O[C@@H]1CN(C)C(=O)Cc1cccnc1,inactive: 0.996
8,C[C@@H]1CCCCO[C@@H](CN(C)S(=O)(=O)c2cn(C)cn2)[C@@H](C)CN([C@@H](C)CO)C(=O)c2cc(NS(=O)(=O)c3ccc(F)cc3)ccc2O1,inactive: 0.996
9,Cc1ccc(CNC[C@H]2Cn3nncc3CO2)o1,inactive: 1.01
10,CC(C)NC(=O)N(C)C[C@@H]1Oc2ccc(NS(=O)(=O)c3ccc(Cl)cc3)cc2C(=O)N([C@H](C)CO)C[C@H]1C,inactive: 0.984
11,CCNC(=O)[C@H]1[C@H](CO)[C@H]2Cn3c(ccc(-c4cccc(C(=O)N(C)C)c4)c3=O)[C@@H]1N2,inactive: 0.983
12,C[C@H]1CN([C@@H](C)CO)C(=O)c2cc(NC(=O)CCCCCC(=O)Nc3ccccc3N)ccc2O[C@@H]1CN(C)C(=O)Nc1cccc2ccccc12,inactive: 0.965
13,C=CC[C@@H](CC(=O)N(CCO)Cc1ccccc1)C(=O)N[C@@H](COC(=O)[C@@H](CC=C)Cc1ccc(F)cc1)Cc1c[nH]c2ccccc12,inactive: 1.12
14,C[C@H]1CN([C@@H](C)CO)C(=O)Cc2cc(NC(=O)Nc3ccc(C(F)(F)F)cc3)ccc2O[C@@H]1CN(C)C(=O)Nc1ccc(F)cc1,inactive: 1.01
15,COc1ccccc1S(=O)(=O)N(C)C[C@H]1Oc2cc(Br)ccc2S(=O)(=O)N([C@H](C)CO)C[C@H]1C,inactive: 0.998
16,Cc1noc(C)c1NC(=O)N(C)C[C@@H]1Oc2c(NC(=O)c3ccncc3)cccc2C(=O)N([C@H](C)CO)C[C@@H]1C,inactive: 1
17,COc1ccc(S(=O)(=O)Nc2ccc3c(c2)C(=O)N([C@@H](C)CO)C[C@@H](C)[C@H](CN(C)Cc2ccc(Cl)c(Cl)c2)O3)cc1,inactive: 0.978
18,CC1OC(OC2C(O)CC(OC3C(O)CC(OC4CCC5(C)C(CCC6C5CCC5(C)C(C7=CC(=O)OC7)CCC65O)C4)OC3C)OC2C)CC(O)C1O (stereo unspecified),inactive: 1.06
19,O=C(O)c1cc(O)[nH]c(=O)c1,inactive: 1.02

row,Structure (SMILES),relative growth
1,CC(CCC(=O)O)C1CCC2C3C(=O)CC4CC(=O)CCC4(C)C3CC(=O)C12C (stereo unspecified),inactive: 1.07
2,C[C@H]1CN([C@@H](C)CO)C(=O)Cc2cc(NS(=O)(=O)c3ccc(Cl)cc3)ccc2O[C@@H]1CN(C)Cc1ccc(C(F)(F)F)cc1,inactive: 0.97
3,O=C(CS)NCCCCCCNC(=O)[C@H]1C[C@H]2C(=O)NCC(=O)N2[C@H]1c1ccc(O)cc1,inactive: 0.997
4,C[C@H]1COC(=O)[C@H](NC(=O)OCC2c3ccccc3-c3ccccc32)CC=CC[C@@H](CC(=O)NCCO)C(=O)N1,inactive: 1.02
5,[N-]=[N+]=Nc1ccccc1[C@H]1OC(c2ccc(OCCCO)cc2)=N[C@@]1(Cc1ccccc1)C(=O)NC[C@@H](O)CO,inactive: 0.998
6,C[C@@H]1CCCCO[C@H](CN(C)C(=O)CCC(F)(F)F)[C@@H](C)CN([C@@H](C)CO)C(=O)c2cc(NS(=O)(=O)c3ccccc3)ccc2O1,inactive: 0.89
7,C[C@@H]1CCCCO[C@H](CN(C)S(C)(=O)=O)[C@H](C)CN([C@@H](C)CO)C(=O)c2cc(NS(C)(=O)=O)ccc2O1,inactive: 1.03
8,C[C@H](CO)N1C[C@H](C)[C@H](CN(C)Cc2ccc(C(F)(F)F)cc2)Oc2ccc(NC(=O)CCCCCC(=O)Nc3ccccc3N)cc2CC1=O,inactive: 1.02
9,C[C@@H]1CCCCO[C@H](CN(C)Cc2ccc(C(F)(F)F)cc2)[C@H](C)CN([C@H](C)CO)C(=O)c2cc(NS(C)(=O)=O)ccc2O1,inactive: 0.988
10,Cc1cc(C)c(NC(=O)CN(CC(=O)O)CC(=O)O)c(C)c1Br,inactive: 0.973
11,CC(C)NC(=O)Nc1ccc2c(c1)C(=O)N([C@H](C)CO)C[C@H](C)[C@H](CN(C)Cc1ccc(C(F)(F)F)cc1)OCCCC[C@@H](C)O2,inactive: 0.976
12,Cc1noc(C)c1NC(=O)N(C)C[C@@H]1Oc2c(NS(=O)(=O)c3cn(C)cn3)cccc2C(=O)N([C@@H](C)CO)C[C@@H]1C,inactive: 0.995
13,COC(=O)c1c2oc(c1C(=O)OC)C(=O)N(C)Cc1cn(nn1)C[C@@H](C)NC(=O)N[C@H](COC(=O)NCCCCCC(=O)NO)CC2,inactive: 0.986
14,C[C@@H]1CN([C@H](C)CO)C(=O)c2cc(NC(=O)Nc3ccccc3)ccc2O[C@@H]1CN(C)Cc1ccc(-c2ccccc2)cc1,inactive: 1.02
15,CNC(=O)C(=O)Nc1cc(F)ccc1F,inactive: 1.01
16,C[C@H]1CN([C@@H](C)CO)C(=O)c2cc(NC(=O)c3ccncc3)ccc2O[C@@H]1CN(C)S(=O)(=O)c1cn(C)cn1,inactive: 0.978
17,Cc1cc2nc3c(=O)[nH]c(=O)nc-3n(C[C@H](O)[C@H](O)[C@H](O)COP(=O)(O)OP(=O)(O)OC[C@H]3O[C@@H](n4cnc5c(N)ncnc54)[C@H](O)[C@@H]3O)c2cc1C,inactive: 0.984
18,O=C(C[C@@H]1C[C@H]2c3cc(NC(=O)c4ccc5c(c4)OCO5)ccc3O[C@H]2[C@@H](CO)O1)NCCc1ccccc1,inactive: 0.972
19,Cn1cnc(CCNC(=O)C[C@@H]2CC[C@H]3[C@@H](COC[C@@H](O)CN3C(=O)Nc3ccc(C(F)(F)F)cc3)O2)c1,inactive: 0.946

row,Structure (SMILES),relative growth
1,C[C@@H]1CCCCO[C@@H](CN(C)S(=O)(=O)c2ccccc2)[C@H](C)CN([C@H](C)CO)C(=O)c2cc(NC(=O)Nc3ccccc3)ccc2O1,inactive: 1.02
2,COc1ccc(S(=O)(=O)Nc2ccc3c(c2)C(=O)N([C@H](C)CO)C[C@@H](C)[C@@H](CN(C)C(=O)Nc2ccc(C(F)(F)F)cc2)OCCCC[C@@H](C)O3)cc1,inactive: 1.01
3,C[C@H](CO)N1C[C@H](C)[C@H](CN(C)Cc2ccc3c(c2)OCO3)OCCCC[C@H](C)Oc2ccc(NS(=O)(=O)c3ccc(F)cc3)cc2C1=O,inactive: 0.995
4,C[C@@H]1CN([C@H](C)CO)C(=O)Cc2cc(NC(=O)C3CCCCC3)ccc2O[C@@H]1CN(C)Cc1ccc(C(=O)Nc2ccccc2N)cc1,inactive: 1
5,COC(=O)c1c(CC[C@@H](CO)NC(=O)N[C@@H](C)Cn2cc(C3(O)CCCCC3)nn2)oc(C(C)=O)c1C(=O)OC,inactive: 0.987
6,CCCOC(=S)N[C@H]1OC[C@@H](O)[C@@H](O)[C@@H]1O,inactive: 0.988
7,COc1ccccc1CNC(=O)C[C@@H]1C[C@@H]2c3cc(NC(=O)Nc4ccc(C(F)(F)F)cc4)ccc3O[C@@H]2[C@@H](CO)O1,inactive: 0.992
8,C[C@H](CO)N1C[C@H](C)[C@H](CN(C)Cc2ccccc2)OCCCC[C@H](C)Oc2ccc(NS(=O)(=O)c3ccc(Cl)cc3)cc2C1=O,inactive: 0.99
9,C[C@H]1CN([C@@H](C)CO)C(=O)c2cccc(NC(=O)Nc3ccc(C(F)(F)F)cc3)c2O[C@@H]1CN(C)Cc1ccccc1,inactive: 0.774
10,C[C@@H]1CN([C@@H](C)CO)C(=O)c2cc(C#CC3(O)CCCC3)cnc2O[C@@H]1CN(C)S(=O)(=O)c1cccc(F)c1,inactive: 0.992
11,O=c1[nH]cc(COCc2ccccc2)c(=O)[nH]1,inactive: 0.98
12,C[C@@H]1CN([C@H](C)CO)S(=O)(=O)c2ccc(Br)cc2O[C@H]1CN(C)CC1CCOCC1,inactive: 1.02
13,Cc1noc(C)c1NC(=O)N(C)C[C@@H]1Oc2ccc(NS(=O)(=O)c3c(C)noc3C)cc2C(=O)N([C@H](C)CO)C[C@H]1C,inactive: 1.03
14,COc1ccc(S(=O)(=O)N2C[C@@H](O)COC[C@@H]3O[C@H](CC(=O)NCCCN4CCOCC4)CC[C@H]32)cc1,inactive: 1.01
15,C[C@@H]1CCCCO[C@@H](CN(C)S(=O)(=O)c2ccccc2)[C@H](C)CN([C@@H](C)CO)C(=O)c2cc(NC(=O)CCC(F)(F)F)ccc2O1,inactive: 0.982
16,Cc1noc(C)c1S(=O)(=O)Nc1cccc2c1O[C@H](CN(C)Cc1ccc(-c3ccccc3)cc1)[C@H](C)CN([C@H](C)CO)C2=O,inactive: 0.994
17,C/C1=C2/[N]([Co+][OH])[C@H]([C@H](CC(N)=O)[C@@]2(C)CCC(=O)NC[C@@H](C)OP(=O)(O)O[C@H]2[C@@H](O)[C@@H](n3cnc4cc(C)c(C)cc43)O[C@@H]2CO)[C@]2(C)N=C(/C(C)=C3N=C(/C=C4N=C1[C@@H](CCC(N)=O)C/4(C)C)[C@@H](CCC(N)=O)[C@]\3(C)CC(N)=O)[C@@H](CCC(N)=O)[C@]2(C)CC(N)=O,inactive: 1.12
18,C[C@@H]1CN([C@@H](C)CO)C(=O)c2cc(NC(=O)CCC(F)(F)F)ccc2O[C@@H](C)CCCCO[C@@H]1CN(C)C(=O)NC1CCCCC1,inactive: 0.989
